Results taken from the supplement of paper PMC4894684.
Structures can show the parent of a compound that is named as a salt. ± gives the standard deviation of the averaged measurements. The campaign covered roughly 1,000 compounds. About 15 (2%) showed an effect of 50% or more. Some of the results follow.
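Further: confluent HFF monolayers, run in parallel with the Toxoplasma growth screen as a host toxicity counterscreen.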

Each molecule was assayed on HFF (assay: uninfected host cell viability relative to vehicle control; higher = less host cell toxicity). Settings: 5 µM; 72 h; oxygen 21 %.
`COc1nc(C)nc(Cl)c1NC1=NCCN1` [Moxonidine hydrochloride] was tested, and the “uninfected host cell viability” value was 89.6 ± 1.9%.
`COc1cc2nc(N3CCN(C(=O)c4ccco4)CC3)nc(N)c2cc1OC` [Prazosin hydrochloride] was tested, and the “uninfected host cell viability” value was 88.7 ± 3.1%.
For `Cc1cc(Cn2cnc3c2CC(C(=O)O)N(C(=O)C(c2ccccc2)c2ccccc2)C3)ccc1N(C)C` (stereo unspecified), the “uninfected host cell viability” value was 82.1 ± 3.1%.
With `CCN(CC)CCOc1ccc(Cc2ccccc2)cc1` [DPPE fumarate] the “uninfected host cell viability” value was 86.65 ± 0.8%.
For `CC(=O)N[C@@H](CC(=O)N[C@@H](CCC(=O)O)C(=O)O)C(=O)O` [Spaglumic acid], the “uninfected host cell viability” value was 90.29 ± 0.078%.
For `c1ccc(C(NCCNC(c2ccccc2)c2ccccc2)c2ccccc2)cc1` [AMN 082 dihydrochloride], the “uninfected host cell viability” value was 89.1 ± 2.2%.
In the case of `Cc1c(C(=O)N(C)C2CCCCC2)sc2nc3ccc(N)cc3n12`, the “uninfected host cell viability” value is reported as 83.6 ± 2.2%.
`COc1ccc2[nH]cc(CCNC(C)=O)c2c1` [Melatonin] was tested, and the “uninfected host cell viability” value was 96.1 ± 1.4%.
`O=Nc1c(-c2c(O)[nH]c3ccccc23)[nH]c2ccccc12` [Indirubin-3'-oxime] was tested, and the “uninfected host cell viability” value was 75.1 ± 6.9%.
For `CCN(Cc1ccncc1)C(=O)C(CO)c1ccccc1` (stereo unspecified) [Tropicamide], the “uninfected host cell viability” value was 86.8 ± 8.4%.
`O=C(NCCNCC(O)COc1ccc(O)cc1)N1CCOCC1` (stereo unspecified) [Xamoterol hemifumarate] was tested, and the “uninfected host cell viability” value was 85.4 ± 3.2%.
In the case of `Nc1nc2c(nc(Br)n2[C@@H]2O[C@@H]3COP(=O)(O)O[C@H]3[C@H]2O)c(=O)[nH]1` [8-Bromo-cGMP, sodium salt], the “uninfected host cell viability” value is reported as 89.8 ± 1.7%.
In the case of `Cc1c(C(=O)NC2CCCCC2)sc2nc3ccc(N)cc3n12`, the “uninfected host cell viability” value is reported as 78.76 ± 0.33%.
In the case of `COc1ccc(S(=O)(=O)N2c3ccc(Cl)cc3[C@](O)(c3ccccc3Cl)[C@@H]2C(=O)N2CCC[C@H]2C(N)=O)cc1OC`, the “uninfected host cell viability” value is reported as 87.61 ± 0.29%.
For `O=c1oc(-c2ccc(C(F)(F)F)cc2)nn1Cc1cc(Cl)ccc1O`, the “uninfected host cell viability” value was 95.1 ± 1%.
For `CCCC(=O)Nc1ncnc2c1ncn2[C@@H]1O[C@@H]2COP(=O)(O)O[C@H]2[C@H]1OC(=O)CCC` [Dibutyryl-cAMP, sodium salt], the “uninfected host cell viability” value was 84.83 ± 0.28%.
With `NC(C(=O)O)c1cc(O)cc(O)c1` (racemic) the “uninfected host cell viability” value was 86.3 ± 2.7%.
In the case of `Fc1ccc(-c2nc3n(c2-c2ccncc2)CCS3)cc1`, the “uninfected host cell viability” value is reported as 67 ± 4.2%.
In the case of `N[C@@H](C(=O)O)c1ccc(C(=O)O)c(C(=O)O)c1`, the “uninfected host cell viability” value is reported as 89 ± 7.8%.
In the case of `O=Nc1ccc(O)c2ncccc12`, the “uninfected host cell viability” value is reported as 54.96 ± 0.076%.
`CC[N+](C)(CC)CC(=O)Nc1c(C)cccc1C` [N-Methyllidocaine iodide] was tested, and the “uninfected host cell viability” value was 87.9 ± 3.1%.
For `Nc1ccc(-c2cccc3c(=O)cc(N4CCOCC4)oc23)cc1`, the “uninfected host cell viability” value was 77 ± 0.83%.
`CC1=C(/C=C/C(C)=C/C=C/C(C)=C/C(=O)Nc2ccc(O)cc2)C(C)(C)CCC1` [Fenretinide] was tested, and the “uninfected host cell viability” value was 75.39 ± 0.053%.
In the case of `CC(C)CC(NC(=O)OCC1c2ccccc2-c2ccccc21)C(=O)O` (stereo unspecified), the “uninfected host cell viability” value is reported as 96.67 ± 0.32%.
For `O=C1C(=O)N(Cc2ccc(Cl)c(Cl)c2)c2ccccc21` [Apoptosis Activator 2], the “uninfected host cell viability” value was 90.7 ± 1.9%.
For `Cc1ccc(/C=N/NC(=O)c2ccccc2Oc2ccccc2)o1`, the “uninfected host cell viability” value was 96.6 ± 2.1%.
In the case of `COc1cc2nc(N3CCN(C(=O)C4CCCO4)CC3)nc(N)c2cc1OC` (stereo unspecified) [Terazosin hydrochloride], the “uninfected host cell viability” value is reported as 84.4 ± 1.8%.
`C[C@@H](CN1CCC(n2c(=O)[nH]c3cc(Cl)ccc32)CC1)NC(=O)c1ccc2ccccc2c1` was tested, and the “uninfected host cell viability” value was 94.4 ± 5.7%.
With `O=C(O)COc1cccc(-c2ocnc2-c2nc(-c3ccccc3)c(-c3ccccc3)o2)c1` the “uninfected host cell viability” value was 105 ± 3.5%.
For `Cn1cc(C(=O)OCC2CCN(CCNS(C)(=O)=O)CC2)c2ccccc21`, the “uninfected host cell viability” value was 77 ± 1.9%.
For `COc1ccc(Nc2nccc(NCCO)n2)cc1` [Cardiogenol C hydrochloride], the “uninfected host cell viability” value was 88.6 ± 2.6%.
For `FC(F)(F)c1ccc(/C=C/c2nc(COc3ccc(CCCCn4ccnn4)cc3)co2)cc1`, the “uninfected host cell viability” value was 109.3 ± 0.5%.
With `CC(C)NCCN(C(C)C)S(=O)(=O)c1ccc(Cl)cc1Cl` the “uninfected host cell viability” value was 88.9 ± 1%.
`CN(Cc1ccccc1)C(=O)[C@H](Cc1ccc2ccccc2c1)NC(=O)[C@@H]1C[C@@H](O)CN1C(=O)c1cn(C)c2ccccc12` was tested, and the “uninfected host cell viability” value was 83.97 ± 0.68%.
`Cc1cccc(Nc2cc(Cl)nc(SCC(=O)O)n2)c1C` was tested, and the “uninfected host cell viability” value was 83.4 ± 5.4%.
With `Cn1cc(C2=C(c3ccc(Cl)cc3Cl)C(=O)NC2=O)c2ccccc21` the “uninfected host cell viability” value was 72.6 ± 4.2%.
With `CN(N=O)C(=O)N[C@@H](C=O)[C@@H](O)[C@H](O)[C@H](O)CO` [Streptozocin] the “uninfected host cell viability” value was 86.9 ± 5.4%.
With `O=C(NC(NC(=S)Nc1ccc(F)c([N+](=O)[O-])c1)C(Cl)(Cl)Cl)C(c1ccccc1)c1ccccc1` (stereo unspecified) the “uninfected host cell viability” value was 86.1 ± 11%.
In the case of `Cc1ccc(C(=O)Nc2ccc(S(=O)(=O)O)c3cc(S(=O)(=O)O)cc(S(=O)(=O)O)c23)cc1NC(=O)c1cccc(NC(=O)Nc2cccc(C(=O)Nc3cc(C(=O)Nc4ccc(S(=O)(=O)O)c5cc(S(=O)(=O)O)cc(S(=O)(=O)O)c45)ccc3C)c2)c1` [Suramin hexasodium salt], the “uninfected host cell viability” value is reported as 91.2 ± 1.9%.
`CCc1c2c(nc3ccc(OC(=O)N4CCC(N5CCCCC5)CC4)cc13)-c1cc3c(c(=O)n1C2)COC(=O)[C@]3(O)CC` was tested, and the “uninfected host cell viability” value was 97.4 ± 3.2%.
For `Cc1ccc(/C(=C\CN2CCCC2)c2ccccn2)cc1` [trans-Triprolidine hydrochloride], the “uninfected host cell viability” value was 95.4 ± 1.1%.
In the case of `Nc1ncnc2nc(-c3ccc(N4CCOCC4)nc3)cc(-c3cccc(Br)c3)c12` [ABT 702 dihydrochloride], the “uninfected host cell viability” value is reported as 75.7 ± 2.7%.
In the case of `C=CCn1c(=O)n([C@@H]2O[C@H](CO)[C@@H](O)[C@H]2O)c2nc(N)[nH]c(=O)c21`, the “uninfected host cell viability” value is reported as 86.7 ± 1.6%.
With `CCn1c(=O)[nH]c2ccccc21` the “uninfected host cell viability” value was 95.8 ± 5.6%.
`O=C(O)C1=CCNCC1` [Isoguvacine hydrochloride] was tested, and the “uninfected host cell viability” value was 88.42 ± 0.37%.
`CS(=O)(=O)Nc1ccc([N+](=O)[O-])cc1Oc1ccccc1` [Nimesulide] was tested, and the “uninfected host cell viability” value was 96.85 ± 0.37%.
With `CC#CCOC(=O)c1c(C)nc2sc3c(c2c1N)CCC(O)C3` (stereo unspecified) the “uninfected host cell viability” value was 87.4 ± 1.4%.
With `CCCCCCCCCCC(C)(C)C(=O)Nc1c(OC)cc(OC)cc1OC` the “uninfected host cell viability” value was 117 ± 4.1%.
With `CCOC(=O)c1c(C)[nH]c2ccc3c(c12)CN1CCc2cc(OC)ccc2C1O3` (stereo unspecified) the “uninfected host cell viability” value was 96.1 ± 2.8%.
For `CC[C@@H]1Cn2c(c3nc(-c4ccccc4)nc-3n(C)c2=O)N1`, the “uninfected host cell viability” value was 89.2 ± 4.1%.
For `CC(=O)N1CCN(c2ccc(OCC3COC(Cn4ccnc4)(c4ccc(Cl)cc4Cl)O3)cc2)CC1` (stereo unspecified) [Ketoconazole], the “uninfected host cell viability” value was 87 ± 2.2%.
With `Cc1[nH]c(/C=C2\C(=O)Nc3ccccc32)c(C)c1CCC(=O)O` the “uninfected host cell viability” value was 82.9 ± 1.8%.
With `CN(C)CCCCSC(=N)N` the “uninfected host cell viability” value was 101.2 ± 0.9%.
For `CC(C)NCC(O)c1ccc(NS(C)(=O)=O)cc1` (stereo unspecified) [Sotalol hydrochloride], the “uninfected host cell viability” value was 92.2 ± 11%.
With `Oc1ccc(Nc2nc(-c3ccc(Cl)cc3)cs2)cc1` the “uninfected host cell viability” value was 89.4 ± 1.8%.
With `COc1cc2ncnc(Nc3ccc(Cl)cc3F)c2cc1OC` the “uninfected host cell viability” value was 79.94 ± 0.48%.
`CC(=O)NNC(=O)N1Cc2ccccc2Oc2ccc(Cl)cc21` was tested, and the “uninfected host cell viability” value was 88.9 ± 1.7%.
In the case of `OC1CCC(Nc2nc(-c3ccccc3)nc3[nH]ccc23)CC1` (stereo unspecified), the “uninfected host cell viability” value is reported as 85.37 ± 0.31%.
For `CCCCCCN(CCCCCC)C(=O)Cc1c(-c2ccc(F)cc2)[nH]c2ccccc12`, the “uninfected host cell viability” value was 104.6 ± 0.91%.
In the case of `O=c1c(-c2ccc(O)cc2)coc2cc(O)cc(O)c12` [Genistein], the “uninfected host cell viability” value is reported as 84.8 ± 3.4%.
`CC(C)C[C@H](NC(=O)[C@@H](O)[C@H](N)Cc1ccccc1)C(=O)O` [Bestatin] was tested, and the “uninfected host cell viability” value was 84.7 ± 2.2%.
With `CNC(=C[N+](=O)[O-])NCCSCc1ccc(CN(C)C)o1` [Ranitidine hydrochloride] the “uninfected host cell viability” value was 96.8 ± 2.2%.
`COC(=O)[C@H]1[C@H]2C[C@@H]3c4[nH]c5cc(OC)ccc5c4CCN3C[C@H]2C[C@@H](OC(=O)c2cc(OC)c(OC)c(OC)c2)[C@@H]1OC` [Reserpine] was tested, and the “uninfected host cell viability” value was 88.396 ± 0.04%.
For `CN(C)CCCSc1ccccc1NC(=O)/C=C/c1ccccc1` [Cinanserin hydrochloride], the “uninfected host cell viability” value was 87.5 ± 2.2%.
For `O=C(O)CC/C=C\C[C@H]1CO[C@@H](c2ccccc2Cl)O[C@H]1c1ccccc1O`, the “uninfected host cell viability” value was 98.6 ± 1.1%.
`CCCCCCCC/C=C\CCCCCCCC(=O)NCc1ccc(O)c(OC)c1` [Olvanil] was tested, and the “uninfected host cell viability” value was 82.3 ± 1.8%.
`COc1ccc(-c2nc(C(=O)N3CCN(C)CC3)sc2-c2ccc(OC)cc2)cc1` was tested, and the “uninfected host cell viability” value was 81.4 ± 4.7%.
`Cc1nn(C)c2nc(NNC(=O)Nc3cc(Cl)nc(Cl)c3)cc(C(C)C)c12` was tested, and the “uninfected host cell viability” value was 89.2 ± 3.1%.
In the case of `CC(C)Oc1cccc(-n2c(CCc3c[nH]c4ccc(Br)cc34)nc3ccccc3c2=O)c1`, the “uninfected host cell viability” value is reported as 92.8 ± 5.5%.
In the case of `CC1(CN2CCC(n3c(=O)[nH]c4ccccc43)CC2)OCc2ccccc2-n2cccc21` (stereo unspecified), the “uninfected host cell viability” value is reported as 94.4 ± 2%.
In the case of `COc1ccc(CCN(C)CCc2ccc(OC)c(OC)c2)cc1OC` [YS-035 hydrochloride], the “uninfected host cell viability” value is reported as 88.4 ± 2%.
For `CCCn1c(=O)c2[nH]c(-c3ccccc3)nc2n(CCC)c1=O` [1,3-Dipropyl-8-phenylxanthine], the “uninfected host cell viability” value was 100 ± 7.9%.
For `Clc1ccc2c(c1)N=C(N1CCNCC1)c1ccccc1N2` [N-Desmethylclozapine], the “uninfected host cell viability” value was 86.15 ± 0.28%.
For `COc1ccc([C@@H]2CNC(=O)C2)cc1OC1CCCC1` [(R)-(-)-Rolipram], the “uninfected host cell viability” value was 82.9 ± 1%.
With `N[C@H]1CCN(O)C1=O` the “uninfected host cell viability” value was 90 ± 4.5%.
For `Nc1[nH]nc2nc3ccccc3nc12`, the “uninfected host cell viability” value was 85.7 ± 7.2%.
`CN(CCc1ccc(Cl)c(Cl)c1)CC(O)COc1ccc(NS(C)(=O)=O)cc1` (stereo unspecified) was tested, and the “uninfected host cell viability” value was 98.6 ± 6.4%.
For `COc1cc2c(cc1O)CC[C@@H]1[C@@H]2CC[C@]2(C)[C@@H](O)CC[C@@H]12` [2-Methoxyestradiol], the “uninfected host cell viability” value was 89.4 ± 7.2%.
In the case of `CN(C)c1nc(N)c(C(=O)Nc2cccnc2)nc1Cl` [ACDPP hydrochloride], the “uninfected host cell viability” value is reported as 97.2 ± 3.6%.
For `N#Cc1ccc(NCCNCC(=O)N2CCC[C@H]2C#N)nc1` [NVP DPP 728 dihydrochloride], the “uninfected host cell viability” value was 97.8 ± 1.5%.
`COC(=O)C1=C(C)NC(C)=C(C(=O)OC)C1c1ccccc1[N+](=O)[O-]` [Nifedipine] was tested, and the “uninfected host cell viability” value was 81.3 ± 2.3%.
For `CN(C)CCCN1c2ccccc2CCc2ccc(Cl)cc21` [Clomipramine hydrochloride], the “uninfected host cell viability” value was 85.211 ± 0.0046%.
In the case of `COc1cc(Br)c(S(=O)(=O)Nc2ccc(Cl)c(O[C@@H]3CCN(C)C3)c2)cc1OC`, the “uninfected host cell viability” value is reported as 96.9 ± 3%.
`CCN(CC)CCOC(=O)C1(c2ccc([N+](=O)[O-])cc2)CCCC1` [Nitrocaramiphen hydrochloride] was tested, and the “uninfected host cell viability” value was 96.4 ± 4%.
With `CC(C)(C)c1ccc(/C=C/C(=O)Nc2ccc3c(c2)OCCO3)cc1` the “uninfected host cell viability” value was 78.46 ± 0.51%.
`CC(Oc1ccc(O)cc1)(P(=O)(O)O)P(=O)(O)O` was tested, and the “uninfected host cell viability” value was 95.3 ± 1.8%.
